Data: article PMC9176254
Results are given in words; binding and its absence hold for the method and conditions named. Some binding calls cover weakened binding; strength is not graded here.

Chains of the proteins cited; added tags and fusions are not shown.
UniProt Q9C5G0: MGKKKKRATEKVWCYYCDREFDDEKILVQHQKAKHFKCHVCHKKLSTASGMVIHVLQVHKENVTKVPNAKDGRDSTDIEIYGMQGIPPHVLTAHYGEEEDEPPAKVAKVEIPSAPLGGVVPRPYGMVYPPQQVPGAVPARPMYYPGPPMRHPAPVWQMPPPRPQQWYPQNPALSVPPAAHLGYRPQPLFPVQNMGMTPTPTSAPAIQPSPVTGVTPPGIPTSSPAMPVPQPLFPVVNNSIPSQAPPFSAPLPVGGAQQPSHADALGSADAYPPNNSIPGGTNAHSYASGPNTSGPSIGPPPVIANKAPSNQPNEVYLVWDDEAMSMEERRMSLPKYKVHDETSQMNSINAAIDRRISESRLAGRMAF

T1: C-TERMINAL DOMAIN PHOSPHATASE-LIKE 3 (CPL3) (Arabidopsis thaliana) (UniProt Q8LL04)
T1 sequence: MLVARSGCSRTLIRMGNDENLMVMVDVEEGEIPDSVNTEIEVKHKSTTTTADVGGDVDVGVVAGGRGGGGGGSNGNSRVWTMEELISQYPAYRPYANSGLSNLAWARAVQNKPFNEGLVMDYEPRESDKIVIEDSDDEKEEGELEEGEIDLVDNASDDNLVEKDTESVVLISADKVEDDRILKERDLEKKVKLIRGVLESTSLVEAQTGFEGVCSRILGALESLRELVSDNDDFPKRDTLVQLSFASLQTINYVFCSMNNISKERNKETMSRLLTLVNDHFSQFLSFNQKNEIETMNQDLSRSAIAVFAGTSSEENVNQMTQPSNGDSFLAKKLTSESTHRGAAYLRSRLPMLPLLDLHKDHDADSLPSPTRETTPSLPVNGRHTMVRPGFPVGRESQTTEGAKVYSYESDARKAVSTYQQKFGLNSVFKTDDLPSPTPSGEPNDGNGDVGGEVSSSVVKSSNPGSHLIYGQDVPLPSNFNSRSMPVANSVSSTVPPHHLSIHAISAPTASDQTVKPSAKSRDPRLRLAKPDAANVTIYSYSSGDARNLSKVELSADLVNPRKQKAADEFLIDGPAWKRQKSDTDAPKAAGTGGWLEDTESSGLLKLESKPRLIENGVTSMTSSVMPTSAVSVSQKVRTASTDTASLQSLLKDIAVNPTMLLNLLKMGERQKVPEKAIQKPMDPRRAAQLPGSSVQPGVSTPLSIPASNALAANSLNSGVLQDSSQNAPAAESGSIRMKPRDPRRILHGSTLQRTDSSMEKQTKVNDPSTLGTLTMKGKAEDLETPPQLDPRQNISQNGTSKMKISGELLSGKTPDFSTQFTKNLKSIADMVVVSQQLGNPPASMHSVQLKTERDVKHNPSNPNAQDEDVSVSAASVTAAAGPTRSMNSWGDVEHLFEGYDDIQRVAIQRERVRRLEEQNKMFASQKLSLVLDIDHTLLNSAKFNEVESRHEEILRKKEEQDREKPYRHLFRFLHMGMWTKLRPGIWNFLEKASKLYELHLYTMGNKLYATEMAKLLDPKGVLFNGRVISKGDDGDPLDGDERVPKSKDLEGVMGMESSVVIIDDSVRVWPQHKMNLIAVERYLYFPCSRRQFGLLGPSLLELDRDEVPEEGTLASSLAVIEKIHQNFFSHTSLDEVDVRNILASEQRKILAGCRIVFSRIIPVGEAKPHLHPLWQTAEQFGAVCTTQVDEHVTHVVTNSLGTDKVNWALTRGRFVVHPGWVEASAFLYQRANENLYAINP

T2: FLC EXPRESSOR (FLX) (Arabidopsis thaliana) (UniProt F4IMQ0)
T2 sequence: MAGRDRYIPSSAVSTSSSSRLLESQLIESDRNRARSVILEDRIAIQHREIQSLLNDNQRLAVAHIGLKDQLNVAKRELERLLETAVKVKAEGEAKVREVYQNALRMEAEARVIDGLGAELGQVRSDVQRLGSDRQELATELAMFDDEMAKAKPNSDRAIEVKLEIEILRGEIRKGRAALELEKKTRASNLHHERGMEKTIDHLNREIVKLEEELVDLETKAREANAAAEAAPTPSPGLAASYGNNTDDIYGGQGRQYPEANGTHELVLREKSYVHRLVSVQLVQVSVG

T3: FRI … 1 (FES1) (Arabidopsis thaliana) (UniProt Q84VG7)
T3 sequence: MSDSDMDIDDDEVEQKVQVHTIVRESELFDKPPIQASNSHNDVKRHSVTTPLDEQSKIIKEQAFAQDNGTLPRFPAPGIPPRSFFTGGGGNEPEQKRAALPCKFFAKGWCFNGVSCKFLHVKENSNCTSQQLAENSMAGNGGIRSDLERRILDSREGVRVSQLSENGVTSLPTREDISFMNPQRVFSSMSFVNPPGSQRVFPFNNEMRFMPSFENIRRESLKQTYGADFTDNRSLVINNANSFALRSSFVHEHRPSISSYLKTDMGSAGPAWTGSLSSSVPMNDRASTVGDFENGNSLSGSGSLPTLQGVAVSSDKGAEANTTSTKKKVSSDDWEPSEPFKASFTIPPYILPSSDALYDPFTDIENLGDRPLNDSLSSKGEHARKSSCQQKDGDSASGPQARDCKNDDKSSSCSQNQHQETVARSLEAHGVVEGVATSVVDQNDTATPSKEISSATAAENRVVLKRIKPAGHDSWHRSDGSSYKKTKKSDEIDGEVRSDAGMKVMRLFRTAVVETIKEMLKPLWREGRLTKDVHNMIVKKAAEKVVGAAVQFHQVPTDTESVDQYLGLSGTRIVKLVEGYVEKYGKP

T4: FLX-LIKE 4 (FLX4) (Arabidopsis thaliana) (UniProt Q9FH51)
T4 sequence: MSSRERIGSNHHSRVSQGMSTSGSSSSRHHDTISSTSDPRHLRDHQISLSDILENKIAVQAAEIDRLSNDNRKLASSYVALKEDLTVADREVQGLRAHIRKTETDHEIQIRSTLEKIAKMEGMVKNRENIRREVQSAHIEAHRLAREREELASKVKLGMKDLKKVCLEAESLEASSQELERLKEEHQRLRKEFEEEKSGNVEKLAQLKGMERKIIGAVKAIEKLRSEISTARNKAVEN


What was measured:
Assay in all cases: two-hybrid; AD (pGADT7) and BD (pGBKT7) vectors co-transformed into Y2HGold yeast; growth on SD-Ade/-His/-Leu/-Trp against SD-Leu/-Trp
[1] = target: T1, C-TERMINAL DOMAIN PHOSPHATASE-LIKE 3 (CPL3) (Arabidopsis thaliana)
[2] = target: T2, FLC EXPRESSOR (FLX) (Arabidopsis thaliana)
[3] = target: T3, FRI … 1 (FES1) (Arabidopsis thaliana)
[4] = target: SUPPRESSOR OF FRI 4 (SUF4) (Arabidopsis thaliana) (UniProt Q9C5G0)
[5] = target: T4, FLX-LIKE 4 (FLX4) (Arabidopsis thaliana)

binding [1]	binding [2]	binding [3]	binding [4]	binding [5]	Binder
binds	binds				C-TERMINAL DOMAIN PHOSPHATASE-LIKE 2 (CPL2) (protein, UniProt Q5YDB5 1-770) MNRLGHKSVVYHGDLRLGELDVNHVSSSHEFRFPNDEIRIHHLSPAGERCPPLAILQTIASFAVRCKLESSAPVKSQELMHLHAVCFHELKTAVVMLGDEEIHLVAMPSKEKKFPCFWCFSVPSGLYDSCLRMLNTRCLSIVFDLDETLIVANTMKSFEDRIEALKSWISREMDPVRINGMSAELKRYMDDRMLLKQYIDNDYAFDNGVLLKAQPEEVRPTSDGQEKVCRPVIRLPEKNTVLTRIKPEIRDTSVLVKLRPAWEELRSYLTAKTRKRFEVYVCTMAERDYALEMWRLLDPEAHLISLKELRDRIVCVKPDAKKSLLSVFNGGICHPKMAMVIDDRMKVWEDKDQPRVHVVSAYLPYYAPQAETALVVPHLCVARNVACNVRGYFFKEFDESLMSSISLVYYEDDVENLPPSPDVSNYVVIEDPGFASNGNINAPPINEGMCGGEVERRLNQAAAADHSTLPATSNAEQKPETPKPQIAVIPNNASTATAAALLPSHKPSLLGAPRRDGFTFSDGGRPLMMRPGVDIRNQNFNQPPILAKIPMQPPSSSMHSPGGWLVDDENRPSFPGRPSGLYPSQFPHGTPGSAPVGPFAHPSHLRSEEVAMDDDLKRQNPSRQTTEGGISQNHLVSNGREHHTDGGKSNGGQSHLFVSALQEIGRRCGSKVEFRTVISTNKELQFSVEVLFTGEKIGIGMAKTKKDAHQQAAENALRSLAEKYVAHVAPLARETEKGPENDNGFLWESSEDVSNKGLEEEAPKENISEL
no binding	no binding	no binding	no binding	no binding	CPL4 (protein, UniProt Q00IB6 1-440) MSVASDSPVHSSSSSDDLAAFLDAELDSASDASSGPSEEEEAEDDVESGLKRQKLEHLEEASSSKGECEHPGSFGNMCFVCGQKLEETGVSFRYIHKEMRLNEDEISRLRDSDSRFLQRQRKLYLVLDLDHTLLNTTILRDLKPEEEYLKSHTHSLQDGCNVSGGSLFLLEFMQMMTKLRPFVHSFLKEASEMFVMYIYTMGDRNYARQMAKLLDPKGEYFGDRVISRDDGTVRHEKSLDVVLGQESAVLILDDTENAWPKHKDNLIVIERYHFFSSSCRQFDHRYKSLSELKSDESEPDGALATVLKVLKQAHALFFENVDEGISNRDVRLMLKQVRKEILKGCKIVFSRVFPTKAKPEDHPLWKMAEELGATCATEVDASVTHVVAMDVGTEKARWAVREKKYVVHRGWIDAANYLWMKQPEENFGLEQLKKQLTEEE
